First the molecules themselves.
B1: PhoQ; a variant is named by its letters at X, in order, P23837 (parent)
chain: MKKLLRLFFPLSLRVRFLLATAAVVLVLSLAYGMVALIGYSVSFDKTTFRLLRGESNLFYTLAKWENNKLHVELPENIDKQSPTMTLIYDENGQLLWAQRDVPWLMKMIQPDWLKSNGFHEIEADVNDTSLLLSGDHSIQQQLQEVREDDDDAEMTHSVAVNVYPATSRMPKLTIVVVDTIPVELKSSYMVWSWFIYVLSANLLLVIPLLWVAAWWSLRPIEALAKEVRELEEHNRELLNPATTRELTSLVRNLNRLLKSERERYDKYRTTLTDLTHSLKTPLXXLQXXLRSLRSEKMSVSDAEPVMLEQISRISQQIGYYLHRASMRGGTLLSRELHPVAPLLDNLTSALNKVYQRKGVNISLDISPEISFVGEQNDFVEVMGNVLDNACKYCLEFVEISARQTDEHLYIVVEDDGPGIPLSKREVIFDRGQRVDTLRPGQGVGLAVAREITEQYEGKIVAGESMLGGARMEVIFGRQHSAPKDE

The other results are listed elsewhere or left out.

This is an account of results in a collection of fitness landscapes (doi:10.1126/science.1257360).

The variants in the experiment derive from B1. Put plainly: enrichment ratio after two sorts for PhoP signalling (ratio (wild type AVST 3.29)); higher = more functional. The note with it: with PhoP (E. coli).
Take KNCI: the enrichment ratio is at most 0.25.

Consider AWHL, for which the enrichment ratio was at most 0.25.

Regarding QTCE, the enrichment ratio is at most 0.25.

For the variant LHRC, the enrichment ratio was at most 0.25.

For the variant MNLT, the enrichment ratio is 3.66.

Regarding PIWE, the enrichment ratio is at most 0.25.

For the variant QTQH, the enrichment ratio was at most 0.25.

YREY: the enrichment ratio was at most 0.25.

Consider NANS, for which the enrichment ratio was at most 0.25.

As for QGSN, the enrichment ratio stood at 20.2.

Regarding TGVI, the enrichment ratio is 0.552.

For the variant GTNW, the enrichment ratio was at most 0.25.

Consider LSSR, for which the enrichment ratio was at most 0.25.

MCMP: the enrichment ratio was at most 0.25.

Consider PPFH, for which the enrichment ratio was at most 0.25.

Turning to FPYA, the enrichment ratio was at most 0.25.

Consider MQKR, for which the enrichment ratio is at most 0.25.

SEAD: the enrichment ratio stood at 5.48.

As to WIHG, the enrichment ratio is at most 0.25.

Take LIEV: the enrichment ratio is at most 0.25.

For the variant QKLS, the enrichment ratio was at most 0.25.

CVFP: the enrichment ratio was at most 0.25.

On to FCSY, for which the enrichment ratio was at most 0.25.

Turning to EPKY, the enrichment ratio was at most 0.25.

Consider QGKW, for which the enrichment ratio was at most 0.25.

As for VTFH, the enrichment ratio was at most 0.25.

For HYCS, the enrichment ratio was at most 0.25.

Turning to WKVP, the enrichment ratio was at most 0.25.

With WYWI, the enrichment ratio is at most 0.25.

Consider LDRF, for which the enrichment ratio is at most 0.25.

ISMS: the enrichment ratio was at most 0.25.

With RAEF, the enrichment ratio was at most 0.25.

Consider AEYL, for which the enrichment ratio worked out at 6.74.

For GNRY, the enrichment ratio was at most 0.25.

With GKYD, the enrichment ratio is at most 0.25.

For the variant SNND, the enrichment ratio was at most 0.25.

With NHKQ, the enrichment ratio was at most 0.25.

Turning to SEMT, the enrichment ratio came out at 20.

Regarding WTPS, the enrichment ratio is at most 0.25.

Regarding QIAM, the enrichment ratio was at most 0.25.

For DIIV, the enrichment ratio is at most 0.25.

On to WAPR, for which the enrichment ratio was at most 0.25.

As to QDGW, the enrichment ratio is at most 0.25.

For KNVD, the enrichment ratio is at most 0.25.

On to VKRF, for which the enrichment ratio is at most 0.25.

As to FIVN, the enrichment ratio was at most 0.25.

For CSDG, the enrichment ratio is at most 0.25.

For the variant SVPW, the enrichment ratio is at most 0.25.

Consider IVHM, for which the enrichment ratio is at most 0.25.

For FKDL, the enrichment ratio was at most 0.25.

In the case of RSSA, the enrichment ratio is at most 0.25.

LFEH: the enrichment ratio is at most 0.25.

As for DIKD, the enrichment ratio was at most 0.25.

With ENMY, the enrichment ratio was at most 0.25.

KYED: the enrichment ratio is at most 0.25.

TGWL: the enrichment ratio is 10.9.

Take PGWR: the enrichment ratio is at most 0.25.

As for NVQK, the enrichment ratio was at most 0.25.

On to LEIG, for which the enrichment ratio was at most 0.25.

Consider RGVV, for which the enrichment ratio was at most 0.25.

Consider MTCK, for which the enrichment ratio is at most 0.25.

Take HGRR: the enrichment ratio is at most 0.25.

Consider INYI, for which the enrichment ratio is at most 0.25.

Regarding PMII, the enrichment ratio is at most 0.25.

For SALY, the enrichment ratio was determined as 11.8.

Consider LYIH, for which the enrichment ratio was at most 0.25.

As to TCDN, the enrichment ratio was at most 0.25.

Take RTKK: the enrichment ratio was at most 0.25.

Regarding NMAH, the enrichment ratio is at most 0.25.

Turning to DLPG, the enrichment ratio was at most 0.25.

Take HIML: the enrichment ratio is at most 0.25.

As to QIWV, the enrichment ratio was at most 0.25.

As for FFNC, the enrichment ratio was at most 0.25.

Regarding RTCR, the enrichment ratio is at most 0.25.

Turning to YICY, the enrichment ratio was 0.353.

On to NFFP, for which the enrichment ratio was at most 0.25.

For KDQR, the enrichment ratio is at most 0.25.

Take EQSA: the enrichment ratio was at most 0.25.

MRTS: the enrichment ratio is at most 0.25.

For RPHM, the enrichment ratio is at most 0.25.

For YVSI, the enrichment ratio was at most 0.25.

Consider NHRW, for which the enrichment ratio was at most 0.25.

As to RLEV, the enrichment ratio was at most 0.25.

In the case of EYWM, the enrichment ratio was at most 0.25.

In the case of WHFE, the enrichment ratio is at most 0.25.

For the variant IFGA, the enrichment ratio is at most 0.25.

With THDY, the enrichment ratio came to 0.403.

LMSC: the enrichment ratio was at most 0.25.

Take HMHS: the enrichment ratio is at most 0.25.

In the case of MPFE, the enrichment ratio is at most 0.25.

As for EVCF, the enrichment ratio was at most 0.25.

QALP: the enrichment ratio was at most 0.25.

Consider VHMG, for which the enrichment ratio was at most 0.25.

Take DMLI: the enrichment ratio is at most 0.25.

For RIEA, the enrichment ratio is at most 0.25.

Turning to PNHQ, the enrichment ratio was at most 0.25.

VTQW: the enrichment ratio was at most 0.25.

As to VNPS, the enrichment ratio was at most 0.25.

TLLM: the enrichment ratio was determined as 0.473.

For the variant LQRT, the enrichment ratio is at most 0.25.

On to NYSI, for which the enrichment ratio was at most 0.25.

On to IKTL, for which the enrichment ratio is at most 0.25.

IRYY: the enrichment ratio was at most 0.25.

For HHEE, the enrichment ratio is at most 0.25.

In the case of WMSE, the enrichment ratio was at most 0.25.

With SIYN, the enrichment ratio is 0.257.

Regarding RCFT, the enrichment ratio was at most 0.25.

For NQFK, the enrichment ratio is at most 0.25.

In the case of IVPT, the enrichment ratio was at most 0.25.

For the variant PREL, the enrichment ratio was at most 0.25.

Turning to KGHN, the enrichment ratio was at most 0.25.

On to GEAW, for which the enrichment ratio is at most 0.25.

With RVNN, the enrichment ratio is at most 0.25.

In the case of LLMG, the enrichment ratio was at most 0.25.

As for RYDE, the enrichment ratio is at most 0.25.

On to TGPD, for which the enrichment ratio was at most 0.25.

Regarding ATQN, the enrichment ratio was at most 0.25.

Consider YTTI, for which the enrichment ratio was at most 0.25.

For the variant KHEV, the enrichment ratio was at most 0.25.

With RKDF, the enrichment ratio is at most 0.25.

For the variant VSSV, the enrichment ratio came to 5.58.

Consider PGVM, for which the enrichment ratio is at most 0.25.

For the variant IGQF, the enrichment ratio is at most 0.25.

For WSKF, the enrichment ratio is at most 0.25.

As to SVVK, the enrichment ratio was at most 0.25.

For the variant MPYM, the enrichment ratio is at most 0.25.

With GVRE, the enrichment ratio is at most 0.25.

Regarding ISWW, the enrichment ratio was at most 0.25.

GDYP: the enrichment ratio is at most 0.25.

Turning to RMLC, the enrichment ratio was at most 0.25.

As for SNGT, the enrichment ratio worked out at 5.43.

For the variant KFHV, the enrichment ratio was at most 0.25.

Take HRTI: the enrichment ratio was at most 0.25.

Consider SPPV, for which the enrichment ratio was at most 0.25.

Turning to QSYH, the enrichment ratio was determined as 2.97.

As to NPPA, the enrichment ratio was at most 0.25.

In the case of FWWC, the enrichment ratio is at most 0.25.

As for KQSL, the enrichment ratio is at most 0.25.

KVMY: the enrichment ratio was at most 0.25.

As to ETGL, the enrichment ratio is at most 0.25.

With KGRY, the enrichment ratio is at most 0.25.

Consider EPWV, for which the enrichment ratio is at most 0.25.

For the variant RLQC, the enrichment ratio was at most 0.25.

With KANK, the enrichment ratio is at most 0.25.

In the case of SKIN, the enrichment ratio is at most 0.25.

Consider TIRV, for which the enrichment ratio was at most 0.25.

Consider TNNR, for which the enrichment ratio was at most 0.25.

Turning to KNHS, the enrichment ratio was at most 0.25.

With TRRY, the enrichment ratio turned out to be 0.321.

As for NSFS, the enrichment ratio was at most 0.25.

For the variant IGLF, the enrichment ratio is at most 0.25.

Consider YAYR, for which the enrichment ratio was at most 0.25.

As for KRLV, the enrichment ratio is at most 0.25.
